Data as given in PubChem BioAssay AID686978 (National Center for Advancing Translational Sciences (NCATS), 2013).
Hit rate of the full screen: of about 420,000 compounds, about 64,000 (15%) were called active. The inconclusive results got no clear call from the source; some entries with a clear call stand among them for comparison. The call rests on the fitted dose curve; in most records, active means well fitted inhibition curve with a large enough effect; inconclusive means small, poorly fitted or top-dose-only effect; inactive means flat fitted curve, though single readings scatter. No potency is given beside an inconclusive call; the fits are too rough.

experiment: qHTS for Inhibitors of human tyrosyl-DNA phosphodiesterase 1 (TDP1): qHTS in cells in absence of CPT; conditions: DT40 Tdp1-/- hTDP1 cells, no CPT, ATP luminescence, 48 h; activity change, negative = growth inhibition: at 46.2 µM (top of the series) unless noted; further: nearly all actives have a fitted effect of over 55% in size
How it was run: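 Luminescent ATP content (CellTiter-Glo) served as the growth readout. Knockout chicken DT40 cells expressing human TDP1 were exposed to compounds without camptothecin for a minimum 48 hr at 37 °C.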
On the % scale 0 is the no-effect control and ±100 the full control effect; potency means the concentration at half of the fitted maximal effect; tags describe the fitted curve by direction and shape.

SMILES	activity change, negative = growth inhibition	Potency
CN1CCN(c2nnc(-c3cccs3)c3ccccc23)CC1	inactive: -11.5%	–
COc1ccc(CC2(CO)CCN(Cc3nc(C(C)C)cs3)CC2)cc1	–	inconclusive [inhibitor, single point]
Cc1ccc(C(=O)N2c3ccccc3Sc3ccccc32)cc1	inactive: 7.39%	–
C=C(/C=C/c1ccc(N(C)C)cc1)c1nc2ccccc2s1	–	active: 0.112 µM
O=C(O)c1ccccc1[O-].O=C(O)c1ccccc1[O-].[Zn+2]	inactive: 0.0778%	–
COCC1CCN(Cc2cn[nH]c2-c2cc3ccccc3o2)C1 (stereo not drawn)	inactive: -25.3%	–
Cc1cc(=O)oc2c3c(cc(OCC(=O)NCc4cccnc4)c12)OC(C)(C)CC3	–	inconclusive [inhibitor, single point]
COc1ccc(C(=O)NCc2ccc(C)cc2)cc1S(=O)(=O)N1CCCc2ccccc21	–	inconclusive [inhibitor, partial curve]
O=C(COc1ccc(S(=O)(=O)NC2CCCCC2)cc1Cl)N1CCN(c2ccccc2)CC1	–	inconclusive [inhibitor, single point]
COc1ccc(CCNC(=O)CCCn2c(=O)c3cccn3c3ccc(F)cc32)cc1OC	–	active: 11.6 µM
CCc1cc2c(Sc3nc4ccccc4s3)ncnc2s1	–	active: 9.2 µM
Nc1nnc(-c2ccncc2)s1	inactive: 4.31%	–
CC(Oc1ccc(Cl)cc1)C(=O)Nc1ccc(S(=O)(=O)Nc2nccs2)cc1 (stereo not drawn)	inactive: -4.37%	–
CCN(CC)CCCN(C(C)=O)c1nc(-c2cc(OC)ccc2OC)cs1	inconclusive: -34.8% [inhibitor]	–
CC(NC(=O)c1cc2ccccn2n1)c1ccccc1 (stereo not drawn)	inactive: 0.357%	–
O=C(Cn1c(=O)cnc2ccccc21)Nc1cccc(S(=O)(=O)N2CCOCC2)c1	inactive: 10.9%	–
COc1ccc(OC)c(NC(=O)Nc2nnc([C@@H]3O[C@H](CO)[C@@H](O)[C@H]3O)s2)c1	inactive: 0.998%	–
Cc1ccc(NC2=NCC(=O)N2C2CCCC2)cc1	inactive: -7.28%	–
COC(=O)CN1C(=O)C(C)(C)c2cc(S(=O)(=O)Nc3ccc(C(C)C)cc3)ccc21	inactive: 3.84%	–
CC(C)C1Nc2ccc(S(N)(=O)=O)cc2C2C=CCC21 (stereo not drawn)	inactive: -14.6%	–
O=C(COc1ccc(Br)cc1)Nc1cccc2cccnc12	–	inconclusive [inhibitor, single point]
CC1(Cc2ccc3c(c2)OCO3)C(=O)Nc2c(Cl)ccc(Cl)c21 (stereo not drawn)	–	active: 23.1 µM
O=C(O)c1cccc(O)c1O	inactive: 1.49%	–
NS(=O)(=O)c1ccc(NC2=CC(=O)C(=O)c3ccccc32)cc1	–	active: 2.59 µM
CCC(c1nnc(SCC(=O)Nc2ccc(Cl)cc2C(F)(F)F)n1C1CCCCC1)N(C)C (stereo not drawn)	–	inconclusive [inhibitor, single point]
O=C(CCNC(=O)c1ccco1)Nc1ccccc1N1CCOCC1	inactive: -24.4%	–

SMILES	activity change, negative = growth inhibition	Potency
CCOc1ccc(NC(=S)NNC(=S)Nc2cccc(C(F)(F)F)c2)cc1	–	inconclusive [inhibitor, single point]
O=[N+]([O-])c1ccc(Cl)c(NC(=S)N2CCCC2)c1	inactive: -12.7%	–
COc1ccc(NC(=O)c2cnc3ccccn3c2=O)c(OC)c1	inactive: -8.69%	–
CC1CCN(S(=O)(=O)c2ccc3ncn(CC(=O)N(C)C4CCCCC4)c(=O)c3c2)CC1	–	inconclusive [inhibitor, single point]
COc1cccc(/C=C/C(=O)NCCc2ccc(OC)c(OC)c2)c1	–	inconclusive [inhibitor, single point]
O=C(c1ccc2c(c1)OCO2)N(c1ccccc1)C1C=CS(=O)(=O)C1 (stereo not drawn)	–	inconclusive [inhibitor, single point]
CCc1cccc(NC(=O)c2coc(=O)c3ccccc23)c1	–	inconclusive [inhibitor, single point]
COC(=O)c1ccc(Cl)cc1NC(=O)N1CCC(CN2CCC(C)CC2)CC1	–	inconclusive [inhibitor, single point]
CC1(C(=O)NS(=O)(=O)c2ccccc2Cl)CCN1C(=O)c1cccc(F)c1 (stereo not drawn)	inactive: -10.8%	–
COc1ccc(CC(=O)Nc2nnc(C(C)(C)C)s2)cc1OC	–	active: 16.4 µM
Cc1ccc(C(=O)NC(=S)N2CCN(C)CC2)cc1	inactive: 2.7%	–
O=C(Cc1ccccc1F)NC1CCSc2ccccc21 (stereo not drawn)	inactive: -9.14%	–
CC(CCc1ccccc1)NCC(O)c1ccc(O)c(C(N)=O)c1 (stereo not drawn)	–	inconclusive [inhibitor, partial curve, poor fit]
CN(C(=O)C(C)(C)C)c1ccc(OCC(=O)N2CCc3ccccc3C2)cc1	–	active: 16.4 µM
COc1cccc(NC(=O)c2oc3ccccc3c2NC(=O)Cc2cccc(C)c2)c1	–	active: 18.4 µM
O=C(CCN1C(=O)c2cccc3cccc(c23)C1=O)NCc1cccnc1	inactive: -2.14%	–
O=c1oc(CCCO)cc2ccc(/C=C/c3cccc([N+](=O)[O-])c3)cc12	–	inconclusive [inhibitor, single point]
Cc1nc2ccccc2c2c1CC(C(C)(Cl)Br)O2 (stereo not drawn)	–	active: 3.66 µM
C[C@H]1CN(c2ccc(Br)cc2)C(=O)[C@@H]1CC(=O)Nc1ccc(Br)cc1	–	inconclusive [inhibitor, single point]
CSc1ccccc1NC(=O)CO/N=C(\C)c1cc2ccccc2o1	–	inconclusive [inhibitor, full curve, poor fit]
CC1(C(=O)NCc2ccc(C(F)(F)F)cc2)CCN1C1Cc2ccccc2C1 (stereo not drawn)	–	inconclusive [inhibitor, single point]
COc1ccc(CCNc2cc(-c3ccccc3)nc3ncnn23)cc1	–	inconclusive [inhibitor, single point]
O=C(COc1ccc(Cl)cc1Cl)c1ccc[nH]1	inactive: -13.7%	–
Cc1ccc(S(=O)(=O)N2CCOCC2)cc1NC(=O)c1cc(-c2ccccn2)nc2ccccc12	inactive: -27%	–
NS(=O)(=O)c1cccc(NC(=O)c2cccc(-c3ccc(O)cc3)c2)c1	–	inconclusive [inhibitor, single point]
COCCN1Cc2cccc(C(=O)NCc3cccs3)c2C1=O	inactive: 20.1%	–

SMILES	activity change, negative = growth inhibition	Potency
Cc1ccccc1OCC(=O)N(Cc1ccc(C(C)C)cc1)C1CCS(=O)(=O)C1 (stereo not drawn)	–	inconclusive [inhibitor, single point]
Cc1cc(OC(C)C(=O)N2CCN(c3ccc(F)cc3)CC2)c2c(C)c(C)c(=O)oc2c1 (stereo not drawn)	–	inconclusive [inhibitor, partial curve, poor fit]
COc1ccccc1C(=O)Nc1ccc(C(=O)Nc2ccccc2C(=O)O)cc1	–	inconclusive [inhibitor, single point]
CS(=O)(=O)Nc1ccc(C(=O)Nc2ccccc2Sc2ccccc2)cc1	–	inconclusive [inhibitor, partial curve]
CCCSC(=O)N(CC)CC(=O)Nc1c(CC)cccc1CC	inactive: -11%	–
CC(NC(=O)c1cc2sccc2n1Cc1ccc(F)cc1)c1ccccc1 (stereo not drawn)	–	inconclusive [inhibitor, single point]
CCOC(=O)c1[nH]c(C)c(C(=O)C(C)C)c1C	inactive: 0.092%	–
CN(C(=O)CCCN1C(=O)c2cccc3cccc(c23)C1=O)c1ccccc1	–	inconclusive [inhibitor, single point]
CCN(CC)C(=O)C1CCCN(c2ccc([N+](=O)[O-])cc2/C=N/NC(=O)c2cccc([N+](=O)[O-])c2)C1 (stereo not drawn)	–	inconclusive [inhibitor, single point]
CCCCc1nnc2c(N(C)S(=O)(=O)c3ccc(C)cc3)nc3ccccc3n12	–	inconclusive [inhibitor, single point]
CCOC(=O)c1nn(-c2ccc(Cl)cc2)cc1O	inactive: -13%	–
O=C(c1c[nH]c2ccccc12)N1CCN(Cc2ccccc2)CC1	inactive: -11.7%	–
Nc1cccnc1Sc1ccc([N+](=O)[O-])cn1	inactive: -0.457%	–
O=S1(=O)CCOC[C@H](CC2CCCCC2)N1Cc1cccc(C(F)(F)F)c1	–	active: 18.4 µM
O=C(Cn1c(C(=O)N2CCN(C3CCCCC3)CC2)cc2sccc21)c1ccccc1	–	inconclusive [inhibitor, single point]
CC(C)(C)c1ccc(-c2nnc(SCC(=O)NCC3CCCO3)n2N)cc1 (stereo not drawn)	inactive: 6.79%	–
COc1cc(OC)c(OC)cc1CN1CCN(S(=O)(=O)c2ccc(F)cc2)CC1	–	inconclusive [inhibitor, single point]
CC1=C(C(=O)OCC2CCCO2)C(c2ccc(Cl)c(Cl)c2)NC(=O)N1 (stereo not drawn)	–	inconclusive [inhibitor, single point]
COc1ccc(C2CCCN2C(=S)Nc2ccc(C)cc2C)cc1OC (stereo not drawn)	–	active: 25.9 µM
CCOc1ccc(NC(=O)CN(C)C(=O)c2ccc(N3CCCCCC3)c([N+](=O)[O-])c2)cc1OCC	–	active: 23.1 µM
Cc1noc(C)c1C(=O)N1CCCC(C)(C(=O)NS(=O)(=O)C2CC2)C1 (stereo not drawn)	–	inconclusive [inhibitor, single point]
Cn1c(=O)oc2cc(S(=O)(=O)Nc3ccccc3)ccc21	–	inconclusive [inhibitor, single point]
Cc1nc2ccc(NC(=O)c3ccc(Br)o3)cc2s1	–	inconclusive [inhibitor, partial curve]
CCc1cccc(C)c1NS(=O)(=O)c1ccc(-n2cccn2)cc1	–	active: 25.9 µM
Cc1ccccc1OCC(=O)Nc1ccc(S(=O)(=O)N2CCOCC2)cc1	–	inconclusive [inhibitor, single point]
CCCOc1ccc(F)cc1-c1cc(C(=O)Nc2ccc(C(C)C)cc2)[nH]n1	–	active: 25.9 µM
